{
  "source": "paper PMC4336329",
  "about": "(PLoS ONE, 2015)",
  "note": "The campaign covered roughly 310,000 compounds. About 2,200 (0.71%) showed an effect of 50% or more. Effects have a minus sign here. This is one part of the list.",
  "data": [
    {"biological_target": "human ether-à-go-go-related gene (hERG) potassium channel (human, UniProt Q12809)", "sequence (Q12809 whole entry, looked up)": "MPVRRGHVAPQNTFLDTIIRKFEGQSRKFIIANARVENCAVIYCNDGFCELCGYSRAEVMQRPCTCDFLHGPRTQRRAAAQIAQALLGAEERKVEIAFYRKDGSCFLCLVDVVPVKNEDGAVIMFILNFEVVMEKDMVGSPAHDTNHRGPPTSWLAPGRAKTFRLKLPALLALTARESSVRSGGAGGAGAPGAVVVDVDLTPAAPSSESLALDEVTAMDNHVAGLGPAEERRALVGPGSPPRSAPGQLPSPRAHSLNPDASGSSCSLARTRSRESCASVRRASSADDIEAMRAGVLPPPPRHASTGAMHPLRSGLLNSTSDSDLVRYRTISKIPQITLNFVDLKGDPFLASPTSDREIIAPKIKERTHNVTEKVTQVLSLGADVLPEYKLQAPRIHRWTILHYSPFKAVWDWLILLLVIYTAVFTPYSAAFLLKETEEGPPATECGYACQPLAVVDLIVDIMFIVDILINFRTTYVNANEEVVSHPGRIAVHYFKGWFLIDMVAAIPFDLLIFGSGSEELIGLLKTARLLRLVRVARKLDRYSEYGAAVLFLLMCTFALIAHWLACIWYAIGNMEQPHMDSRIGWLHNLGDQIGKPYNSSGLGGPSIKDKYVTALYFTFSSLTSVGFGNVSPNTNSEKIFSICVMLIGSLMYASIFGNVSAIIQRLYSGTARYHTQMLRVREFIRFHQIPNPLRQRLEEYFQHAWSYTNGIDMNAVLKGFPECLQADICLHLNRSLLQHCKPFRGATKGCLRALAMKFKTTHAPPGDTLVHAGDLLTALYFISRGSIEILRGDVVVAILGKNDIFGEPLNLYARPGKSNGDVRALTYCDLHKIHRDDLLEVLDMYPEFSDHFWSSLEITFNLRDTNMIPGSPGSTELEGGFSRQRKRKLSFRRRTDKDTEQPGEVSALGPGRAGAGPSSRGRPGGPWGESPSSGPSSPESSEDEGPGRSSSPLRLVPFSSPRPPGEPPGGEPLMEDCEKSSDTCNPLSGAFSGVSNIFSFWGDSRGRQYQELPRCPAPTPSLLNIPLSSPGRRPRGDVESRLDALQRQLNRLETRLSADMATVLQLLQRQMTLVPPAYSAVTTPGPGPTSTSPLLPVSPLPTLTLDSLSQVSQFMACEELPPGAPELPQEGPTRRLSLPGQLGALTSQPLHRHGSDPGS", "assay": "primary screen, population patch clamp on CHO cells stably expressing hERG", "units": {"hERG current change (%, negative = inhibition) at 1uM": "%"}, "values": [
      {"smiles": "Cc1nn(-c2ccc(F)cc2)c2sc(C(=O)N3CCCCCC3)cc12", "hERG current change (%, negative = inhibition) at 1uM": -3.99},
      {"smiles": "CN1CCCN(C(=O)c2cc(-c3cccc4ccccc34)nc3ccccc23)CC1.Cl", "hERG current change (%, negative = inhibition) at 1uM": -27.9},
      {"smiles": "CCOC(=O)c1cc(NC(=O)SCC(=O)O)c(C)nc1C", "hERG current change (%, negative = inhibition) at 1uM": -9.62},
      {"smiles": "CCOC(=O)C1CCN(C(=O)c2sc3nc(-c4ccc(F)cc4)cn3c2C)CC1", "hERG current change (%, negative = inhibition) at 1uM": -22.1},
      {"smiles": "CCC(C)(C)n1nnnc1C(C(C)C)N1CCC(C(N)=O)CC1", "note": "(stereo not shown)", "hERG current change (%, negative = inhibition) at 1uM": 9.79},
      {"smiles": "CN(CCNC(=O)C1CCN(S(=O)(=O)c2cnc[nH]2)CC1)Cc1ccccc1", "hERG current change (%, negative = inhibition) at 1uM": 11.1},
      {"smiles": "Cl.O=C(OCCN1CCOCC1)C1(c2ccccc2)CCCC1", "hERG current change (%, negative = inhibition) at 1uM": 11.4},
      {"smiles": "O=C1CSC(=Nc2cccc([N+](=O)[O-])c2)N1", "hERG current change (%, negative = inhibition) at 1uM": 9.4},
      {"smiles": "Cc1ccc(S(=O)(=O)NCCCCC(NC(=O)OC(C)(C)C)C(=O)O)cc1.c1ccc(Nc2ccccc2)cc1", "note": "(stereo not shown)", "hERG current change (%, negative = inhibition) at 1uM": 14.2},
      {"smiles": "COc1ccc(OC)c(C2C(C(=O)c3cccs3)=C(O)C(=O)N2c2cc(C)on2)c1", "note": "(stereo not shown)", "hERG current change (%, negative = inhibition) at 1uM": 10.7},
      {"smiles": "COc1cc2oc3ccccc3c(=O)c2cc1OC", "hERG current change (%, negative = inhibition) at 1uM": 4.09},
      {"smiles": "O=C(Nc1ccc(F)cc1)c1ccc(CSc2ccccc2)o1", "hERG current change (%, negative = inhibition) at 1uM": 9.84},
      {"smiles": "CS(=O)(=O)N1CCN(c2ccc([N+](=O)[O-])c(NCc3ccc(Cl)cc3)c2)CC1", "hERG current change (%, negative = inhibition) at 1uM": 9.72},
      {"smiles": "CN(CC(=O)Nc1ccccc1C(F)(F)F)C(=O)COc1cccnc1[N+](=O)[O-]", "hERG current change (%, negative = inhibition) at 1uM": 11.9},
      {"smiles": "CN(CC(=O)Nc1ccc(Cl)cc1)C(=O)c1cc(-c2cccs2)nn1-c1ccccc1", "hERG current change (%, negative = inhibition) at 1uM": 4.37},
      {"smiles": "CN1c2ccccc2C2(C)CCCC3=Cc4cccc([N+](=O)[O-])c4OC312", "note": "(stereo not shown)", "hERG current change (%, negative = inhibition) at 1uM": 8.76},
      {"smiles": "CCOC(=O)[C@H]1[C@H]2COc3ccc(Cl)cc3[C@@H]2N2C(=O)CN(Cc3ccccc3)C(=O)[C@@]12C", "hERG current change (%, negative = inhibition) at 1uM": 7.79},
      {"smiles": "Cc1cccc2nc(CSc3nc4ccc([N+](=O)[O-])cc4[nH]3)c(Br)n12", "hERG current change (%, negative = inhibition) at 1uM": -7.53},
      {"smiles": "CN(C(=O)c1ccc(NC(=O)Cc2cccc(NC(=O)C3CCCN(C(=O)CCc4ccccc4)C3)c2)cc1)C1CCCC1", "note": "(stereo not shown)", "hERG current change (%, negative = inhibition) at 1uM": 13.7},
      {"smiles": "CCC1(C)N(O)C(C)(C)C(c2ccc(OC)cc2)=[N+]1[O-]", "note": "(stereo not shown)", "hERG current change (%, negative = inhibition) at 1uM": 12.3},
      {"smiles": "Cc1cc(NC(=O)CSc2nc(-c3ccc(F)cc3)cs2)no1", "hERG current change (%, negative = inhibition) at 1uM": 21},
      {"smiles": "CN1CCc2c(sc(/N=C/c3c[nH]c4ccccc34)c2C#N)C1", "hERG current change (%, negative = inhibition) at 1uM": 9.8},
      {"smiles": "COC(=O)CSc1nnc(CNS(=O)(=O)c2ccc(C)cc2)n1C", "hERG current change (%, negative = inhibition) at 1uM": -1.61},
      {"smiles": "CC(=O)N(C(C)=O)S(=O)(=O)c1ccc(N=NN2CCOCC2)cc1", "hERG current change (%, negative = inhibition) at 1uM": 12},
      {"smiles": "CCCOc1ccc(C(=O)N/N=C/c2c[nH]c3ccc(Br)cc23)cc1", "hERG current change (%, negative = inhibition) at 1uM": 16.7},
      {"smiles": "COc1ccc(N=C2SCC(=O)N2Cc2ccccc2)cc1", "hERG current change (%, negative = inhibition) at 1uM": 0.201},
      {"smiles": "O=C(COC(=O)/C=C/c1cccc(C(F)(F)F)c1)NCCN1C(=O)CSC1=O", "hERG current change (%, negative = inhibition) at 1uM": 4.67},
      {"smiles": "Cc1ccc(-n2[nH]c(C)c(/C=N/NC(=O)c3cccc([N+](=O)[O-])c3)c2=O)cc1C", "hERG current change (%, negative = inhibition) at 1uM": -5.98},
      {"smiles": "O=c1[nH]c(=S)n(-c2ccc(Br)cc2)c2ncccc12", "hERG current change (%, negative = inhibition) at 1uM": 13.9},
      {"smiles": "CC1(C)c2ccccc2N2CC(=O)N[C@@]21/C=C/C=C/c1ccccc1", "hERG current change (%, negative = inhibition) at 1uM": 12.4},
      {"smiles": "CC(C)c1ccc(NC(=O)c2cc(S(=O)(=O)NCC3COc4ccccc4O3)ccc2F)cc1", "note": "(stereo not shown)", "hERG current change (%, negative = inhibition) at 1uM": 8.7},
      {"smiles": "Cc1cc(C)c(C#N)c(SCS(=O)Cc2ccccc2)n1", "note": "(stereo not shown)", "hERG current change (%, negative = inhibition) at 1uM": 17.4},
      {"smiles": "COc1ccc(OCCNS(=O)(=O)c2ccccc2)cc1", "hERG current change (%, negative = inhibition) at 1uM": -13},
      {"smiles": "CCCCCSc1nc2c(cnn2-c2ccc(F)cc2)c(=O)[nH]1", "hERG current change (%, negative = inhibition) at 1uM": 11.5},
      {"smiles": "N#C/C(=C(/O)CCl)c1nc(-c2ccccc2)cs1", "hERG current change (%, negative = inhibition) at 1uM": 7.2},
      {"smiles": "CNc1c(NS(=O)(=O)c2ccc(Cl)cc2)c(=O)oc2ccccc12", "hERG current change (%, negative = inhibition) at 1uM": 12},
      {"smiles": "O=C(C1CCCO1)N1CCN(c2c3c(nc4cc(-c5ccc(F)cc5)nn24)CCC3)CC1", "note": "(stereo not shown)", "hERG current change (%, negative = inhibition) at 1uM": 3.64},
      {"smiles": "CC(=O)Nc1cccc(NC(=O)c2ccc3c(c2)CCN3S(C)(=O)=O)c1", "hERG current change (%, negative = inhibition) at 1uM": 14},
      {"smiles": "CCC(CC)c1nnc(NC(=O)[C@@H](NC(=O)c2cccc(C)c2)C(C)C)s1", "hERG current change (%, negative = inhibition) at 1uM": 8.72},
      {"smiles": "Cc1cc(=O)oc2c3c(cc(OCC(=O)NCC(=O)N[C@H](C(=O)O)C(C)C)c12)OC(C)(C)CC3", "hERG current change (%, negative = inhibition) at 1uM": 6.84},
      {"smiles": "Cc1ccc(S(=O)(=O)N(C)CC(=O)Nc2ccc3c(c2)OCO3)cc1", "hERG current change (%, negative = inhibition) at 1uM": 7.45},
      {"smiles": "Cc1ccccc1-c1nc(CN(Cc2c(C)nn(C)c2C)C2CC2)c(C)o1", "hERG current change (%, negative = inhibition) at 1uM": 10.2},
      {"smiles": "COc1cc(/C=N\\NC(=O)C(C)(C)O)ccc1OC/C=C/c1ccccc1", "hERG current change (%, negative = inhibition) at 1uM": 13}
    ]}
  ]
}
